From patent US12551573B2, “Compositions and methods for the targeting of PCSK9” (Scribe Therapeutics Inc., priority 2022, dated 2026) come the findings set out here.

Residue numbers refer to the chain shown, from its start.

B1: DOMAIN_23709 (protein, listed as Carlito syrichta)
chain: AHRSVMFNDVSIDFSREEWEYLNLEQRDLYRDVMLENYSNLVSLGYFISKPDVISLLEQGEEPWKVVRKGRRRYPDLKTNY
B2: DOMAIN_23575 (protein, listed as Erinaceus europaeus)
chain: KPAAVRFADVAVYFSPEEWGCLRPAQRTLYRDVMRETYGHLGALGFPGPKPALISWMEQESEVWSPAAQDPEEGESLGGAR
B3: DOMAIN_23680 (protein)
chain: AHGSVMFSDVSIVFSQEEWEYLDLKQRDLYRDVMLENYSNLVSLGCFISKPDVISLLEQGKEPWKVMRKGRGRYPDLETRY
modifications: Vicugna pacos
B4: DOMAIN_23378 (protein, listed as Odobenus rosmarus)
chain: PQEPVTFEDVAVYFTQNQWASLDPTQRALYREVMLENYASVASLVAFPFPKPDLVSQLERGEAPWSPDPWEAEVLKGTCPG
B5: DOMAIN_23513 (protein, listed as Tupaia chinensis)
chain: EQVTFKDVAIEFSKTEWKRLDPAQRALYREVMLENYRNLVSVGTSPPDVTVISMLEQGEEPWTAESRVQRPEVPGGREWTQ
B6: DOMAIN_23642 (protein)
chain: QPQEAVTFKDVEVTFSQDEWGWLDASQRNLYRDVMLENYGNVTSLVGPFTKPALISWLEAREPWGLNVQGAHPKGSPSAAP
modifications: Delphinapterus leucas
B7: DOMAIN_23260 (protein, listed as Tupaia chinensis)
chain: QPGAVRFADVAVYFSPEEWGCLRPVQRALYRDVMRETYSHLVALGVGGTKPKLISWVEEEAELWGPEAQDLEGAKCLTEAN
B8: DOMAIN_23731 (protein, listed as Colobus angolensis)
chain: EMGLLTFRDIAIEFSLAEWQCLDHAQRNLYRDVMLENYRNLVSLGVAVSKPDLITCLEHNKEPRNIKRNEMVSKHPVTCSH
B9: DOMAIN_23323 (protein, listed as Erinaceus europaeus)
chain: SLGMVSFEDVAVTFSREEWQQLDEAQRTLYREVMLEAYSNLKTVGCCWSKPEVIIRLEQGVEPWTVEGVTNQRFSDVLTVD
B10: DOMAIN_23494 (protein, listed as Mustela putorius)
chain: QAEVTFEDVAVLFSREEWGRLGPAQRGLYRDVMLETYRNLVSLGAGPAGPKPGVITQLERGDEPWVLDAQGAEGKERLRVS
B11: DOMAIN_23336 (protein, listed as Carlito syrichta)
chain: FQELVTFRDVAIDFSRQEWEYLDPNQRDLYRDVMLENYSNLVSLGHSISKPDVVDLLEQGKEPWMLLGEETQYSGSNPEPV
B12: DOMAIN_23574 (protein)
chain: QGSVTFRDVAIDFSQEEWEWLQPAQRDLYRHVMLENYGHLVSLGLNISKPYVVSLLEQGRDPWLEKDVRRDLFSESSGEIR
modifications: Gulo gulo
B13: DOMAIN_23453 (protein, listed as Carlito syrichta)
chain: MAFMDVAVDFTQEEWRLLSPAQRTLYREVMLENYSNLVSLGIPFSKPKLITLLEQEKVTWREKRKCPLATCPAEPEPEPEL
B14: DOMAIN_23641 (protein, listed as Carlito syrichta)
chain: VSFEDVAVYFTQEEWTLLDSAQRDLYRDVMLETCENLASIGNLLNHSVMYWLEGEENLGTVQEGDPQEWRLKTKGSTLRPD
B15: DOMAIN_23561 (protein, listed as Colobus angolensis)
chain: YQTPVSFKDVVVGFTQEEWHWLSPAQRALYRDVMLETYSNLVSVGYEGTKPDVILRLEQEEAPWIGEAACPGCHCWGISKL
B16: DOMAIN_23576 (protein, listed as Erinaceus europaeus)
chain: SKAPVTFGDLAVYFTQAEWEWLSPVQKALYQDVMLENYQVLVSLGLCLRRPNLISLLEKGKAPWVAEPVRRRRGPDSASKF
B17: DOMAIN_23711 (protein)
chain: AQELVTFKDIAIDFTQEEWALLDTSQRQLYRDVMLENISHLVSVGYHLCKSDVISQLEQGVELWRDGREFLQGLNPDRKSG
modifications: Gulo gulo
B18: DOMAIN_23508 (protein, listed as Mustela putorius)
chain: IQEPVTFKDVAVDFTQEEWGQLDSVQRTLYRDVMLETYGHLLSVGNHIAKPEVISLLEQGEEPWSVEQAYPQSTCPEWMRN
B19: DOMAIN_23480 (protein, listed as Odobenus rosmarus)
chain: SQSLVTFGDVAVDFSQEEWEWLNSAQRNLYRSVMLENYRNLVSLGLCVSKPDVISSLEQRKEPWMVKRKLTRGRCPDLKTV
B20: DOMAIN_23590 (protein, listed as Odobenus rosmarus)
chain: ARGLVTFEDVAVYFSREEWGLLNLTQRSLYRDVMLENFALIGSLGFAPSRSHVVAQLESEEELWVPSMVDLTLGSRAEARR
B21: DOMAIN_23654 (protein, listed as Carlito syrichta)
chain: MTFSDVAVDFSQQEWECLDPVQKTLYRDVMMENYGNLVSLGHSISKPDVIALLEQGKEPWVVTKEETRRCCTDLESRYEII
B22: DOMAIN_23301 (protein)
chain: SQDLVTFKDVAIDFSQEEWEWLNPAQRNLYKNMMLENYQNLVSLGLCISKPYVISLLEQGKGPWEMKTEMTRSPFPDSGSV
modifications: Gulo gulo
B23: DOMAIN_23375 (protein)
chain: YQRPVSFKDVVVGFTQEEWHRLNPAQRALYRDVMLETYSNLVSVGYEGTKPYVILRLEQEEAPWICEAACPGCHCRENIWQ
modifications: Vicugna pacos
B24: DOMAIN_23458 (protein)
chain: MFQVTFSDVAIDFSHEEWGWLDSAQRDLYKDVMVQNYENLVSLGLSIPKPNVIALLEEGKDPWMVERKLSTGMFPDWDSRW
modifications: Vicugna pacos
B25: DOMAIN_23604 (protein)
chain: B24 chain with G72D, M73W, F74D, P75S, D76R, D78E, S79N, R80K, W81E
modifications: Vicugna pacos
B26: DOMAIN_668 (protein, listed as Pan paniscus)
chain: DPAQVPVAADLLTDHEEQGYVTFEDVAVYFSQEEWRLLDDAQRLLYRNVMLENFTLLASLGLASSKTHEITQLESWEEPFM

In the first assay the test system is HBEGF locus. The assay is classed as cell-based, human. The conditions noted are these: high-throughput screen of dXR repression of the HBEGF gene; abundance of each domain in the library before vs after diphtheria toxin selection; listed domains met p-value <0.01 and log2(fold change) >2.
For B1, the “Log2 (fold change)” value was 4.545. On the same count and under the same terms, as for B2, the figure is 3.4624; as for B3, 2.712; as for B4, 3.0623. Still for that read-out and setting: as for B5, the figure is 3.2927; as for B6, 3.8829; as for B7, 2.7567. The same measure, in the same setting: next, B8: 3.1609; B9: 3.2619; B10: 3.847. With B11, the “Log2 (fold change)” value is 2.239.

For B12, the “Log2 (fold change)” value is recorded as 2.939. Take B13: the “Log2 (fold change)” value is 2.2331. On the same count and under the same terms, next, B14: 2.6942. Still for that read-out and setting: as for B15, the figure is 3.2392; as for B16, 3.8014; as for B17, 2.658. On the same count and under the same terms, as for B18, the figure is 2.3582; as for B19, 3.4432. With B20, the “Log2 (fold change)” value came to 2.8653. Take B21: the “Log2 (fold change)” value worked out at 2.337. Regarding B22, the “Log2 (fold change)” value is 2.6839. Still for that read-out and setting: next, B23: 3.266; B24: 2.4232. Same read-out and setting: as for B25, the figure is 2.6984.

Staying with this assay, now noted: high-throughput screen of dXR repression of the HBEGF gene; change in abundance of each domain in the library before and after diphtheria toxin selection.
In the case of B26, the “Log2 (fold change)” value came out at 2.9256.
